Measured values reported in PubChem BioAssay AID938 (National Center for Advancing Translational Sciences (NCATS), 2007).
Among all 73,000 compounds or so, about 1,800 (2.5%) were called active. The inconclusive results got no clear call from the source; some entries with a clear call stand among them for comparison. The call rests on the fitted dose curve; in most records, active means well fitted activation curve with a large enough effect; inconclusive means small, poorly fitted or top-dose-only effect; inactive means no such curve, though single readings can be large or run the other way. Potencies of inconclusive entries are left out as doubtful fits.

Assay: qHTS Assay for Agonists of the Thyroid Stimulating Hormone Receptor: Activators of Intracellular cAMP Concentrations in Parental HEK 293; further: nearly all actives have a fitted effect of over 55% in size; on activation: % of control where 0% means no effect
Details: parental HEK293 CNG cAMP sensor, membrane potential fluorescence; activation: at 57.1 µM (top of the series) unless noted
Summary of the method: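 Parental HEK 293 cells stably expressing a cAMP-gated CNG channel were loaded with membrane potential dye containing 100 uM RO 20-1724 for 60 min. Compound added for 30 min; depolarization read as fluorescence intensity at 590 nm.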
Potency means the concentration at half of the fitted maximal effect; tags describe the fitted curve by direction and shape.

Structure (SMILES)	Potency	activation
C[C@@H]1CN(CCCn2c3ccccc3c3ccccc32)C[C@H](C)N1	inconclusive [activator, partial curve, poor fit]	
CC(=O)c1c(C)[nH]c(C(=O)Nc2cccnc2)c1C		inactive: -2.1%
O=C1c2ccccc2[C@@H]([C@@H]2c3ccccc3C(=O)c3cc(Br)ccc32)c2ccc(Br)cc21		inactive: 6.04% [at 11.4 µM]
CS(=O)(=O)c1nc(-c2ccco2)cc(C(F)(F)F)n1		inactive: 9.79%
O=C(NC1CCCC1)C(c1ccncc1)N(Cc1cccs1)C(=O)c1csnn1 (stereo not drawn)	inconclusive [activator, single point]	
Fc1ccccc1CSc1nnc(-c2cccs2)o1	inconclusive [activator, single point]	
COc1cccc(-c2cc(C(=O)N3CC4(C)CC3CC(C)(C)C4)no2)c1 (stereo not drawn)	inconclusive [activator, partial curve]	
COc1cccc(-n2c(COc3ccc(C)cc3)nnc2SCC(N)=O)c1		inactive: 2.28%
O=C1OC(c2ccc(O)cc2)(c2ccc(O)cc2)c2ccccc21	inconclusive [activator, single point]	
CCOc1ccc(NS(=O)(=O)c2ccc3[nH]c(=O)oc3c2)cc1	inconclusive [activator, single point]	
CCCNC(=O)OC[C@@H]1O[C@H](CCO/N=C\C[C@H]2C=C[C@H](OC(C)=O)[C@@H](COC(C)=O)O2)C=C[C@@H]1Oc1ccc(OC)cc1		inactive: 6.09% [at 11.4 µM]
COc1ccccc1C1CC(c2ccc(C)cc2)Nc2ncnn21 (stereo not drawn)	inconclusive [activator, partial curve]	
CCOC(=O)c1cc(C)n(S(=O)(=O)c2ccc(C)cc2)c1C	inconclusive [activator, single point]	
Nc1nnnn1/N=C/c1ccccc1OCc1ccc(Cl)cc1Cl	active: 31.6 µM	
COc1ccc2c(c1)c(C(=O)CN1CCN(C(=O)c3ccco3)CC1)c(C)n2C		inactive: 1.05%
CCOC(=O)c1cnc(-n2nc(C)cc2C)nc1NCCc1ccccc1	active: 25.1 µM	
CCc1cc2c(=O)c(-c3nc4ccccc4[nH]3)coc2c(CN2CCCC(C)C2)c1O (stereo not drawn)	inconclusive [activator, single point]	
Cc1nn(-c2nc3ccccc3[nH]2)c(N)c1-c1ccccc1		inactive: -6.08%
O=C(Nc1cccc(F)c1)N1CC[C@@]2(CCCN(C(=O)c3ccncc3)C2)C1	inconclusive [activator, single point]	
O=C(Cn1ccccc1=O)c1cccs1	inconclusive [activator, single point]	
COc1ccc2c(c1)[nH]c1c(=O)n(CCc3cnc[nH]3)cnc12	inconclusive [activator, single point]	
O=C(CN(Cc1cccs1)C(=O)CN1C(=O)COc2ccccc21)NCc1ccco1	active: 15.8 µM	
COc1ccc(S(=O)(=O)Nc2cc(C(C)C)c(O)cc2C)cc1		inactive: -1.78%
CC(C)N(C(=O)CSc1nc2c([nH]1)c(=O)n(C)c(=O)n2C)c1ccccc1		inactive: 25.6%

Structure (SMILES)	Potency	activation
Oc1ccc(C=Nc2ccc(N3CCOCC3)cc2)c(O)c1		inactive: 2.48%
C(=C\c1ccccc1)/CSc1nnc(-c2cnccn2)n1Cc1ccco1	active: 12.6 µM	
O=C(Nc1ccccc1)N(CCN1CCOCC1)Cc1cccc(Cl)c1	inconclusive [activator, single point]	
COc1ccc(CCNC(=O)CN2CCN(c3cccc(Cl)c3)CC2)cc1OC	inconclusive [activator, single point]	
CC(=O)Nc1ccc(S(=O)(=O)N2CCN(c3cc(C)ccc3C)CC2)cc1	inconclusive [activator, single point]	
O=C(CN1CCCN(S(=O)(=O)c2ccc(F)cc2)CC1)Nc1ccccc1Br	inconclusive [activator, single point]	
c1ccc(-c2nn3c(C4COc5ccccc5O4)nnc3s2)cc1 (stereo not drawn)		inactive: 8.6%
Cc1ccc(C(=O)OCc2nnc(-c3ccccc3)o2)o1		inactive: 22%
CCc1nc(NC(C)C)c2oc3ccccc3c2n1		inactive: 24.1%
CCOC(=O)c1ccc(N2Cc3ccccc3C2)cc1O	inconclusive [activator, partial curve]	
CCOC(=O)c1sc(NC(=O)c2ccc(C)o2)nc1C	inconclusive [activator, single point]	
Cc1cc(NC(=O)CSc2nc(C(C)C)nc3sc4c(c23)CCCC4)no1	inconclusive [activator, partial curve]	
Nc1c(S(=O)(=O)c2cccs2)c2nc3ccccc3nc2n1Cc1cccs1	inconclusive [activator, full curve]	
CS(=O)(=O)Nc1cccc(-c2nc(NCc3cccs3)c3ccccc3n2)c1	inconclusive [activator, full curve]	
CNc1ncnc2ccc(-c3cccc(OC)c3)cc12		inactive: 21%
CCCCNC(=O)CC(NS(=O)(=O)c1ccc(C)cc1)c1ccco1 (stereo not drawn)		inconclusive: 51.6% [activator]
COCc1nc2ccccc2n1CCCOc1ccccc1	inconclusive [activator, single point]	
COc1cccc(C2=CC(c3ccc(OC)c(OC)c3OC)n3nnnc3N2)c1 (stereo not drawn)		inactive: 3.15%
COc1ccc(NC(=O)N2CC3(CCN(C(=O)c4cccn4C)CC3)C2)cc1		inactive: 5.6%
CC1CN(c2nn3c(=O)c4ccccc4nc3c3ccccc23)CC(C)O1 (stereo not drawn)	inconclusive [activator, single point]	
CC(C)c1nc(SCC(=O)Nc2cccc(C(F)(F)F)c2)c2c(=O)n(C)c(=O)n(C)c2n1		inactive: -0.552%
Cc1cc(C)c(/C=C2/C(=O)Nc3ccccc32)[nH]1	active: 1.58 µM	
O=C(Nc1c(-c2ccccc2)nc2sccn12)c1ccccc1		inactive: -9.53%
C=C1CC[C@H](O)C/C1=C/C=C1\CCC[C@]2(C)[C@H]1CC[C@H]2[C@@H](C)/C=C\[C@@H](C)C(C)C	inconclusive [activator, single point]	
